Experimental data as given in publication PMC6919601, “Identification of Plasmodium dipeptidyl aminopeptidase allosteric inhibitors by high throughput screening” (PLoS ONE, 2019).
The whole screen tested about 110,000 compounds, of which about 230 (0.21%) showed an effect of 50% or more. The list shows a part of the results.

Each molecule was assayed against DPAP1 (Plasmodium falciparum, UniProt Q8IIJ9) (assay: primary screen, percent inhibition; read by cleavage of a fluorogenic dipeptide substrate; higher = more effect of the substance).
Parameters: species or system P. falciparum D10 trophozoite lysates; single well
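Note: 30 min substrate incubation versus DMSO and 10 µM JCP410 controls.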

Sequence of DPAP1 (Q8IIJ9 whole entry, looked up): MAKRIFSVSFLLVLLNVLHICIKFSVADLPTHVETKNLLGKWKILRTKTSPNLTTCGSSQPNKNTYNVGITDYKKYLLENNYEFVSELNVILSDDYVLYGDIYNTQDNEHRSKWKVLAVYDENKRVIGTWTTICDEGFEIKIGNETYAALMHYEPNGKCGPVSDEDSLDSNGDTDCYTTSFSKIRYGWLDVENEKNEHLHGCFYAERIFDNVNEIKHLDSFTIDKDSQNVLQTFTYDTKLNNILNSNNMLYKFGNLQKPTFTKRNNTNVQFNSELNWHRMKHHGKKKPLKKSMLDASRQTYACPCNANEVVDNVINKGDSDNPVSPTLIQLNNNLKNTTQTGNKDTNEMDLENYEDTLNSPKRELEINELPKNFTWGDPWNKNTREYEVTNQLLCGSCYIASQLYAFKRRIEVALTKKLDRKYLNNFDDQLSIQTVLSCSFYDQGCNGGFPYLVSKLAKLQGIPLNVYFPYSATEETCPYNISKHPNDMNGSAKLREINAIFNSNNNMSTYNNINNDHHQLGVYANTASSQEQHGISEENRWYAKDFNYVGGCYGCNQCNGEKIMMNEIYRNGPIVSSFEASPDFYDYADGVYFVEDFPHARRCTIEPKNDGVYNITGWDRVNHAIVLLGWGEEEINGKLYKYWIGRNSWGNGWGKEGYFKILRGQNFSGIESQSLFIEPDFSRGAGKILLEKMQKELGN

| SMILES | % Inhibition @ 10 uM [%] |
| --- | --- |
| Brc1csc(CN2CCN(C/C=C/c3ccccc3)CC2)c1 | -3.65 |
| CCOCCCNC(=O)CSc1nc2nc(C)c(Cc3cccc(C)c3)c(C)n2n1 | 2.83 |
| N#C/C(=C/c1cccs1)c1nc(-c2cc3ccccc3oc2=O)cs1 | 3.06 |
| CCOC(=O)c1c(NC(=O)C2C3CCC(O3)C2C(=O)O)sc2c1CCC(CC)C2 (stereo not drawn) | 3.94 |
| O=C(CSc1nc2ccc(NC(=O)c3ccccc3Cl)cc2s1)NC1CC1 | 5.66 |
| Cc1ccc(C2Nc3ccccc3N=C3CC(C)(C)CC(O)=C32)o1 (stereo not drawn) | -8.3 |
| CC(C)(C)NC(=O)COCc1cc(-c2ccc(F)cc2)on1 | -0.501 |
| Cc1ccccc1C1CC(=O)N2CN(C3CCCCC3)CSC2=C1C#N (stereo not drawn) | 24 |
| CCOC1O[C@@H](CS(=O)(=O)Cc2ccccc2OC(F)F)C(=O)N[C@H]1CC (stereo partly drawn) | -3.49 |
| COC(=O)c1cc(S(=O)(=O)NCC(C)c2ccccc2)c[nH]1 (stereo not drawn) | 2.42 |
| Cc1ccc(C2C=C(c3ccc(OC(F)F)cc3)Nc3ncnn32)cc1 (stereo not drawn) | 3.32 |
| Cc1onc(-c2c(Cl)cccc2Cl)c1C(=O)Nc1ccc(S(N)(=O)=O)cc1 | 1.64 |
| COCCN1Cc2cccc(C(=O)NCCc3ccccc3)c2C1=O | -6.06 |
| Cc1cc(C)c(OCC(O)CNC(C)(C)CC(C)(C)C)c(C)c1 (stereo not drawn) | -4.24 |
| CCOCCCNC(=O)c1ccc(CN2CC(=O)N3CCCCC3C2=O)cc1 (stereo not drawn) | -0.35 |
| Cc1cccc(N(CC(=O)NC2CCCC2)S(C)(=O)=O)c1C | -3.65 |
| CC12CC3(C)CC(C(=O)O)(C1)CC(C(=O)O)(C2)C3 | 6.96 |
| Cc1cccc2c1nc(-c1ccccc1)n1nnnc21 | 1.88 |
| Cc1ccc(OCC(=O)Nc2ccccc2C)c(C)c1 | 2.82 |
| COc1ccc(CCNC(=O)Cn2nnc(-c3ccc(S(C)(=O)=O)cc3)n2)cc1OC | 1.03 |
| COCc1cc(C)nc(SCC(=O)Nc2ccc(C)c(C)c2)c1C#N | -4.4 |
| CCCn1cnc2cc(NCc3ccccn3)ccc21 | -12.6 |
| O=c1c(NCCCN2CCCCCC2)c(-c2ccccc2)c1=O | 4.1 |
| O=C(NCc1ccco1)c1ccc2c(c1)ncn2-c1ccc(OCc2ccccc2)cc1 | 7.3 |
| CC1C(O)CCC1(C(=O)O)c1ccccc1 (stereo not drawn) | -7.89 |
| COc1ccc(NC(C)CCc2ccc(O)cc2)cc1 (stereo not drawn) | 1.29 |

| SMILES | % Inhibition @ 10 uM [%] |
| --- | --- |
| CC(=O)Nc1ccc(NC(=O)COc2ccc(Br)cc2C)cc1 | 3.35 |
| COC(=O)c1sc2nc(-c3ccccc3)nc(N)c2c1C | 0.182 |
| Cc1ccc(SCCC(=O)NC(C)C)cc1 | -2.21 |
| CCc1ccccc1N(CC(=O)N(C)Cc1ccccc1)S(C)(=O)=O | -0.69 |
| N=C1/C(=C\c2cc(Cl)c(O)c(Cl)c2)C(=O)N=C2SC(N3CCCC3)=NN12 | 1.51 |
| CCOC(=O)c1c(C)c(C(=O)NCC2CCCO2)c(C)n1Cc1ccccc1 (stereo not drawn) | 0.0579 |
| CCN(CC)C(=O)C1CCCN(Cc2ccc(OC(F)(F)F)cc2)C1 (stereo not drawn) | 3.35 |
| CCC(C)NC(=O)c1cnc(SC)nc1-c1ccccc1 (stereo not drawn) | 4.48 |
| O=C(CN1C(=O)c2ccccc2Sc2ncccc21)NCCN1CCOCC1 | -5.68 |
| COc1cccc(CNCc2cccn2-c2nnc(N3CCOCC3)s2)c1 | 2.44 |
| O=C(CCN1C(=O)c2ccccc2C1=O)Nc1cccc(C(F)(F)F)c1 | -1.29 |
| COC(=O)[C@@]1(C)CC[C@]2(C)CC[C@]3(C)C(=CCC4[C@@]5(C)CCC(O)C(C)(C)C5CC[C@]43C)C2C1 (stereo partly drawn) | 41.2 |
| COCCCNC(=O)c1cnn2c(C)c(Cc3cccc(Cl)c3)c(C)nc12 | 2.9 |
| Cc1nn(Cc2ccc(F)cc2)c(C)c1NC(=O)c1ccccc1F | -6.74 |
| COc1ccc(N(CC(=O)Nc2ccc(Cl)cc2)S(C)(=O)=O)cc1OC | -5.37 |
| Brc1ccc(CN2CCc3ccccc3C2)o1 | 1.48 |
| CC(=O)c1c(C(C)=O)c(C)n(-c2cccc3cccnc23)c1C | -1.85 |
| Cn1c(=O)c2c(-c3ccc(Cl)cc3)n(C(CO)(CO)CO)cc2n(C)c1=O | -3.12 |
| COc1ccc(/C=C/C2=NC(=C\c3cc(OC)ccc3OC)/C(=O)O2)cc1 | -7.59 |
| Cc1ccc(C2=NS(=O)(=O)N(C)C(C(=O)NC3CCCCC3)=C2)cc1 | 2.32 |
| c1cc(C23CC4CC(CC(C4)C2)C3)ccc1OCCN1CCOCC1 | 2.41 |
| CCc1nnc(SCc2cc(=O)n3ccccc3n2)c2cc3sccc3n12 | 3.08 |
| CCCN(C(C)=O)c1nc(-c2cccc(Cl)c2)cs1 | -2.99 |
| CCOC(=O)c1cnc(N2CCCC2)nc1C1CCNCC1 | -2.83 |
| COc1ccc2c(c1)C1CC(C)(NC(=O)C1C(=O)c1ccccc1)O2 (stereo not drawn) | -2.21 |
| Cc1nn2c3ccccc3n(C)c2c1C=O | 2.8 |

| SMILES | % Inhibition @ 10 uM [%] |
| --- | --- |
| Cc1ccc(CNS(=O)(=O)c2cn(C)cn2)cc1 | 1.47 |
| COc1ccccc1NC(=O)C(c1ccccc1)c1ccccc1 | -0.828 |
| Cn1cc(/C=C(\NC(=O)c2ccco2)C(=O)NCCCO)c2ccccc21 | -3.52 |
| CC(C)C[C@@H](C(=O)NC1(C#N)CC1)c1cccc(-c2ccc(N3CCN(C(=O)OC(C)(C)C)CC3)cc2)c1 | 3.19 |
| CC(C)C(=O)Nc1ccccc1C(=O)Nc1ccc(C(=O)O)cc1 | 13 |
| COc1cccc2c1OC(c1cccnc1)N1N=C(c3cc(C)ccc3O)CC21 (stereo not drawn) | 3.39 |
| COc1cc(OC)cc(C(=O)NCCOc2ccccc2C)c1 | -9.59 |
| CCC(Sc1nc2ccccc2c2nc3ccccc3n12)C(=O)NCCCOC (stereo not drawn) | 3.36 |
| Nc1nc(CSc2nc3ccccc3[nH]2)nc(N2CCOCC2)n1 | -2.39 |
| CCOc1ccc(NC(=O)c2ccc(OCC)cc2)cc1 | -7.08 |
| Cc1ccc(-c2csc(-c3cc4ccc(O)cc4oc3=O)n2)cc1C | -1.15 |
| COc1cc(OC)cc(-c2nc3nc(C)c(CCC(=O)NC4CCCC4)c(C)n3n2)c1 | -0.465 |
| Cc1cc(O)n2nc(C(C)C)nc2n1 | 2 |
| C[C@@H](C[C@H](NC(=O)c1ccc(OC(F)(F)F)cc1)C(=O)NCC#N)c1ccccc1 | 0.079 |
| O=c1c2c3c(sc2[nH]c(=S)n1-c1ccccc1)CN(Cc1ccccc1)CC3 | 57.7 |
| NS(=O)(=O)c1ccc2c(c1)C1C=CCC1C(c1ccc(F)cc1)N2 (stereo not drawn) | 0.0538 |
| COc1ccccc1CNc1ncc(-c2ccccc2)n1C | -2.91 |
| CCCCN(C)C(=O)Cn1ncc2c(C)n(Cc3ccc(F)cc3)c(C)c2c1=O | -3.96 |
| CCOC(=O)N1CCC(NCCc2ccccc2Cl)CC1 | 5.03 |
| COC(=O)C1=CN(C(C)C)C=C(C(=O)OC)C1c1ccc2c(c1)OCO2 | 3.45 |
| O=S(=O)(c1ccc(Br)c(S(=O)(=O)N2CCCCCC2)c1)N1CCCCCC1 | 5.53 |
| COc1cccc2c(O)c(NC(=O)N3CCC(O)CC3)cnc12 | 5.2 |
| Cc1ccc(Cl)cc1-n1cnnn1 | 3.01 |
| CCOc1ccc(N2C(=O)CC(N3CCN(C(=O)CN4CCCC4)CC3)C2=O)cc1 (stereo not drawn) | -4.75 |
| O=C(CCCCCN1C(=O)c2cccc3cccc(c23)C1=O)NCc1cccnc1 | -1.92 |
| O=C(Nc1ccc(F)cc1)c1ccc(C(=O)Nc2ccc(F)cc2)cc1 | -0.351 |

| SMILES | % Inhibition @ 10 uM [%] |
| --- | --- |
| COc1ccc(C2C3=C(O)CC(C)(C)CC3=NC(C)=C2C(=O)N2CCCCC2)cc1OC (stereo not drawn) | -3.23 |
| CCc1nc2ccc(C(=O)N3CCC(N4CCCCC4)CC3)cc2nc1CC | 0.775 |
| Cc1ccccc1OCC(=O)Nc1nccs1 | -2.27 |
| CN(Cc1ccccc1)S(=O)(=O)c1cc(F)ccc1CN1C(=O)c2cccnc2C1=O | -2.74 |
| CC(C)CNC(=O)CN(C)S(=O)(=O)c1ccc(F)cc1 | -6.3 |
| O=C(CC(NCCN1CCOCC1)C(=O)O)Nc1cccc(Cl)c1 (stereo not drawn) | -2.98 |
| Cc1ccc(-c2nc3scc(CCNC(=O)c4cccc(C(F)(F)F)c4)n3n2)cc1 | -0.48 |
| N#Cc1conc1-c1ccc(Cl)cc1 | 1.43 |
| Fc1ccccc1N1CCN(Cc2ccco2)CC1 | 3.8 |
| Cc1cc(C(F)(F)F)nn1CC(=O)Nc1sc2c(c1C(N)=O)CCCC2 | -1.49 |
| CCN1CCN(C(c2cccnc2)c2ccc3cccnc3c2O)CC1 (stereo not drawn) | -3.33 |
| Cn1c(SCc2ccc(F)cc2)nc2ccc(C(=O)N3CCN(c4ccccn4)CC3)cc21 | -6.99 |
| COc1ccc(NC(=O)CCCOc2ccc(Cl)cc2C)cc1 | -0.641 |
| O=C(Nc1nccs1)[C@H](c1ccc(F)cc1)N1Cc2ccccc2C1=O | -7.24 |
| Cc1nnc(SCC(=O)NCCc2ccccc2)nc1O | -7.09 |
| CCCCOCC1Cc2c(C)nn(C(N)=S)c2O1 (stereo not drawn) | 1.81 |
| Nc1ccc(C23CC4CC(C2)CC(c2ccc(N)cc2)(C4)C3)cc1 | -3.77 |
| COc1ccc(/C=C2\SC(=O)N(c3ccccc3OC)C2=O)cc1 | -9.65 |
| Cc1cc(NC(=O)C2CC(c3ccc(F)cc3)=NO2)no1 (stereo not drawn) | -2.16 |
| Cc1ccc(NC(=O)CC2SC(NC3CCCCC3)=NC2=O)cc1 (stereo not drawn) | 0.512 |
| CC(=O)N/C(=C\c1ccccc1)C(=O)N(C(C)C)C(C)C | -2.51 |
| Fc1ccccc1OCCCN1CCOCC1 | -2.12 |
| O=C(O)C1CCN(S(=O)(=O)c2ccc3c(c2)OCCO3)CC1 | -2.4 |
| Fc1ccc(CN2CCN(c3ccccn3)CC2)cc1F | 1.4 |
